The record followed here is PubChem BioAssay AID1346428 (National Center for Advancing Translational Sciences (NCATS), 2018).

Several values for one entry are separate records, joined by “and”; a condition that tells them apart may be missing. Equal values may be shown once. In all, about 48,000 compounds went through this assay and about 1,200 (2.5%) were called active. About 2% were inconclusive and are not listed.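 Rule for the calls: active = activation of at least 60% and not above a set upper limit (about 1 call in 100 departs from these limits); inconclusive = activation of 40% to 60%, or above that upper limit; inactive = activation under 40%.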 The list shows a part of the results. Some structures have more than one record in an assay (separate samples or runs), and their calls can disagree.

UniProt O75388, sequence (O75388 whole entry, looked up): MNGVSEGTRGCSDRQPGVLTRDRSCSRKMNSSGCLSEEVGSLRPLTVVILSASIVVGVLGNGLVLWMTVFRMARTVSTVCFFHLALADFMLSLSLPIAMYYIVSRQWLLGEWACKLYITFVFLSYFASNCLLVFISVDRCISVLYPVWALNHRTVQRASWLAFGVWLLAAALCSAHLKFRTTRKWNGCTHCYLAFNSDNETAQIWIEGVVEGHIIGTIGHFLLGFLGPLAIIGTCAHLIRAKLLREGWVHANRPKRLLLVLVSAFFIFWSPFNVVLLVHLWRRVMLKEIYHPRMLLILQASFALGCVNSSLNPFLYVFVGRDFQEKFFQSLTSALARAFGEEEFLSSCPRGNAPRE

In this assay the target is Probable G-protein coupled receptor 32 (Homo sapiens) (UniProt O75388). As to the kind of experiment: qHTS for Agonists of Human Resolvin D1 Receptor DRV1. Note: 0% is about no effect. As to conditions: CHO-K1 GPR32 beta-arrestin PathHunter luminescence, 90 min; at 76.9 µM; stronger effect = higher value; zero percent set by DMSO-only wells. Put shortly:
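Step 1: seed CHO-K1 GPR32 beta-arrestin cells, 2,500/well, overnight at 37 °C. Step 2: add compounds, 90 min at 37 °C. Step 3: detection reagent, 1 h ambient, then luminescence.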
(In qHTS, concentration-response curves come from the screen itself.)
With `CCOC(=O)N1CCC2(CC1)OC(=O)C(C)=C2C(=O)NCc1cccc(OC)c1`, the activation was inactive: -7.48%. The value for `COc1ccc(NC(=O)CC2C(=O)N(c3ccc(C)cc3)C(=O)N2Cc2cccnc2)cc1` (stereo not drawn) was inactive: 0.554%; that for `CCN1CCN(Cc2c(O)ccc3c(C)c(-c4ccccc4)c(=O)oc23)CC1` was inactive: -7.06%. The value for `Cc1cccc(-n2ncc(C(=O)NCc3ccccn3)c2C2CCN(C(=O)OC(C)(C)C)CC2)c1` was inactive: -14.6%. The value for `CCCCN1C(=O)CN(C2CCCCC2)C(=O)C1c1ccc(OC(C)C)c(OC)c1` (stereo not drawn) was inactive: -19.1%; that for `COc1ccc(CNc2cc(-c3ccc(OC)cc3)nc3nncn23)cc1` was inactive: 23.2%. For the compound `O=C(CSc1nc2c(c(=O)[nH]1)CCCC2)Nc1ccc(Br)cc1`, the activation was inactive: 31.7%. As to `Cc1ccc(C)c(N2CCN(c3nc4ccccc4n4c(C)nnc34)CC2)c1`, the activation was inactive: -3.32%. Turning to `Cc1ccc(NC(=O)C(c2ccccc2)N2Cc3ccccc3C2=O)cc1Cl` (stereo not drawn), the activation was inactive: -7.93%. The result for `CCCC(C(=O)OCCN(CC)CC)(c1ccccc1)c1ccccc1` reads active: 60.2% and inactive: -17.3%. As for `Cc1ccc(NC(=O)Cn2c(=O)n(CCC(=O)NCc3ccc4c(c3)OCO4)c(=O)c3sccc32)c(C)c1`, the activation was inactive: -13.4%. The value for `Cc1ccc(Cl)cc1NC(=O)CN1C(=O)COc2ccc(S(=O)(=O)N3CCOCC3)cc21` was inactive: -8.27%; that for `CCCCn1cc(S(=O)(=O)c2ccc(F)cc2)c(=O)c2ccccc21` was inactive: -11.7%; that for `COc1ccccc1CNC(=O)c1ccc(-c2nc(CS(=O)c3ccccc3)c(C)o2)cc1` (stereo not drawn) was inactive: 6.99%. The result for `O=C(Cc1ccc(NC(=O)N2CCCCc3ccccc32)cc1)NCc1ccccc1` reads inactive: -5.05%; that for `CCCCN(CCCC)CCNC(=O)c1cc(-c2cccnc2)nc2ccc(S(=O)(=O)N3CCC(C)CC3)cc12`, inactive: -7.2%. The value for `CCOc1ccc2nc(N3CCCC(C(=O)Nc4cccc(Cl)c4C)C3)sc2c1` (stereo not drawn) was inactive: -5.56%; that for `CCc1cc2c(cc3c(=O)n(CC(=O)N4CCCCC4)ncn32)s1` was inactive: -21.3%. For the compound `COc1ccc(N(Cc2cccs2)C(=O)COc2ccc(C(C)C)cc2)cc1`, the activation was inactive: -2.95%. With `COc1ccc(S(=O)(=O)c2c(Nc3ccc(C)cc3)sc(C(=O)c3ccc4c(c3)OCO4)c2N)cc1`, the activation was inactive: -21.8%.

Consider `Cc1cc(F)ccc1NC(=O)C1CCCN(S(=O)(=O)c2ccc3c(c2)CCCC(=O)N3)C1` (stereo not drawn), for which the activation was inactive: 5.8%. Consider `Cc1cnc2c(c1SCC(=O)Nc1ccc(F)cc1F)c(=O)n(C)c(=O)n2C`, for which the activation was inactive: -2.01%. The value for `COc1ccc(Cn2c(SCC(N)=O)nc3c(sc4ccccc43)c2=O)cc1` was inactive: -1.72%; that for `Cc1ccc2[nH]c3c(=O)n(CC(=O)N4CCN(c5cccc(C(F)(F)F)c5)CC4)ncc3c2c1` was inactive: 7.55%; that for `CCOc1ccc(N2C(=O)N(Cc3c(F)cccc3Cl)c3ccccc3S2(=O)=O)cc1` was inactive: -18.3%. `CN(C)c1ccc(CN(CC2CCCO2)C(=O)c2ccc(Br)cc2)cc1` (stereo not drawn): the activation is inactive: -28.2%.

`Cc1ccc(-n2c(=O)c3ccc(C(=O)NCc4ccccc4Cl)cc3n(CC(=O)Nc3cccc(F)c3)c2=O)cc1`: the activation is inactive: -17.2%.

Turning to `Cc1ccc2[nH]c(CSc3nnc(COc4ccccc4C)n3C)cc(=O)c2c1`, the activation is inactive: 17.4%. The value for `COc1cccc(CNC(=O)CN2C(=O)CSc3c2c(C)nn3-c2ccccc2)c1` was inactive: -7.72%; that for `O=C(COCc1cc(-c2cccs2)on1)Nc1ccc(OC(F)(F)F)cc1` was inactive: -10.1%. In the case of `CC(C)NC(=O)c1ccc(C=O)cc1`, the activation is inactive: -0.696%. The value for `CCCCOc1ccc(NC(=O)Cn2nnnc2-c2ccccc2F)cc1` was inactive: -7.43%; that for `Cc1cc2c(cc1C)NC(CC(=O)Nc1ccccc1SC(F)(F)F)C(=O)N2` (stereo not drawn) was inactive: -30.4%; that for `COc1ccc2ncc3c(-c4ccc(C)c(C)c4)nn(CC(=O)NC4CCCCC4)c3c2c1` was inactive: -0.499%.

Regarding `COc1cc(OC)c(NC(=O)Cn2cnc3sc(C)c(S(=O)(=O)N4CCN(C)CC4)c3c2=O)cc1Cl`, the activation was inactive: -0.551%. The value for `Cc1ccc(S(=O)(=O)c2nc(-c3ccco3)oc2SCC(C)C)cc1` was inactive: -37.2%. The result for `CN1CCC[C@H]1c1cccnc1` reads inactive: -3.11%. The value for `Cc1cc2ccccc2n1CCNC(=O)c1cccc(Cl)c1` was active: 116%; that for `COc1ccc(CNC(=O)CC(c2ccc(OC)c(OC)c2)N2Cc3ccccc3C2=O)cc1` (stereo not drawn) was inactive: 12.5%; that for `CCOc1ccc(NC(=O)CSC2=Nc3ccccc3C3=NC(CC(=O)NCc4ccco4)C(=O)N23)cc1` (stereo not drawn) was inactive: -34.4%. Regarding `COc1ccccc1CNc1ccc(-c2nc(-c3ccncc3)no2)cc1[N+](=O)[O-]`, the activation is inactive: 18.1%. The value for `CC(C)c1ccc(NC(=O)c2cc(S(=O)(=O)NCc3ccccc3Cl)ccc2F)cc1` was inactive: -13.4%; that for `COc1ccc(C)cc1NC(=O)Cn1c(=O)ccc2cc(S(=O)(=O)N3CCCC3)ccc21` was inactive: 29.1%. The value for `CCOc1cc(C(=O)N2CCc3c([nH]c4ccccc34)C2c2ccccc2)cc(OCC)c1OCC` (stereo not drawn) was inactive: -27.2%; that for `Cc1ccc(N(CC(=O)Nc2ccc(C)c(F)c2)S(=O)(=O)c2c(C)n[nH]c2C)cc1` was active: 102%; that for `N#Cc1c[nH]n2c(NC3CCCC3)c(-c3cccc(Cl)c3)nc12` was inactive: -18.1%. Consider `CCOC(=O)c1sc2ncn(CC(=O)Nc3ccc(C)cc3Br)c(=O)c2c1C`, for which the activation was inactive: 2.56%. The result for `COc1ccccc1-n1c(/C=C/c2c(C)n(C)c3ccccc23)nc2ccccc2c1=O` reads inactive: -32.6%; that for `CCOc1ccc(OCC(=O)Nc2nnc3n2CCS3)cc1`, inactive: -6.97%. The value for `COc1cccc(NC(=O)c2cnn(-c3ccccc3)c2-n2cccc2)c1` was inactive: -9.72%; that for `CCc1ccc(Sc2cc(C(=O)NC(C)CC)c3ccccc3n2)cc1` (stereo not drawn) was active: 74.7%.

For the compound `COc1ccc(-c2noc(CSc3nnc(-c4ccncc4)n3-c3ccc(C)cc3)n2)cc1`, the activation was inactive: 5.98%. The value for `CCOc1ccc(Sc2cc(C(=O)NCCc3ccccc3)c3ccccc3n2)cc1` was inactive: -23.1%; that for `CCOc1nc(NC(=O)NS(=O)(=O)Oc2ccccc2)nc(-c2ccccc2)n1` was inactive: 1.95%; that for `COc1cccc(CNC(=O)C2CCC(CNS(=O)(=O)c3ccc(Br)s3)CC2)c1` (stereo not drawn) was inactive: 19.9%. Turning to `CCOC(=O)C(Cc1c[nH]c2ccccc12)NC(=O)COc1ccc(Cl)c(C)c1` (stereo not drawn), the activation is inactive: 6.58%. Take `O=C(C1CCC(Cn2c(=O)c3sccc3n(Cc3cccc(F)c3)c2=O)CC1)N1CCCCC1` (stereo not drawn): the activation is inactive: -28.5%. The value for `COc1ccc(NC(=O)c2c(C)oc3ccc(O)c(CN4CCC(C)CC4)c23)cc1` was inactive: 39.6%; that for `COc1ccccc1Nc1nn2c(=O)c3ccc(C(=O)NCc4ccc(F)cc4)cc3nc2s1` was inactive: 17.7%; that for `O=C(NCCc1ccccc1)C(=O)NCC(c1cccnc1)N1CCN(c2ccccc2F)CC1` (stereo not drawn) was inactive: 14.9%.

As to `CCN1CCN(C(c2ccc(F)cc2)c2c(O)cc(C)n(CCOC)c2=O)CC1` (stereo not drawn), the activation was inactive: -13.1%. The value for `Cc1ccc(CNC(=O)C(=O)NCC(c2ccco2)S(=O)(=O)c2cccs2)cc1` (stereo not drawn) was inactive: -18.2%. The value for `COc1ccc(CCNC(=O)c2ccc(CS(=O)(=O)Cc3cccc(C)c3)o2)cc1OC` was inactive: 22.3%. The value for `COc1ccc(C(=O)Nc2ccc(-c3cc4ccccc4oc3=O)c(C)c2)cc1OC` was inactive: 30.9%; that for `CC(C)CCNC(=O)C1CCN(C(=O)N2CCOc3ccc(Cl)cc32)CC1` was inactive: -1.2%; that for `CCc1cccc2c(-c3ccc(F)cc3)nc(SCC(=O)Nc3ccccc3)nc12` was inactive: -9.01%.

For `CSc1cccc(NC(=O)N2CCN(c3cc(-c4noc(C)n4)ccc3C)CC2)c1`, the activation was inactive: -2.39%. The result for `COc1ccc(-c2n[nH]c3c2C(c2ccc(O)cc2)N(c2ccc(Br)cc2)C3=O)cc1` (stereo not drawn) reads inactive: -5.77%; that for `CCN1CCN(c2ncnc3c2cnn3-c2ccc(C)cc2)CC1`, inactive: 7.28%. The result for `C=C(C)CSc1nc2sc3c(c2c(=O)n1-c1ccccc1)CCC(C)C3` (stereo not drawn) reads inactive: 15.9%; that for `O=C(NC1CCCCCC1)c1ccc2c(c1)sc1nc(-c3ccccc3)cn12`, inactive: -13.4%; that for `COc1cc(C2CC(=O)N(c3ccccc3)C3=C2C(=O)OC3)cc(OC)c1OC` (stereo not drawn), inactive: 20.1%.

For `CCOC(=O)c1c(C)[nH]c(C)c1S(=O)(=O)N1CCCC(C(=O)Nc2ccc(F)cc2F)C1` (stereo not drawn), the activation was inactive: 0%. The value for `CCOc1ccc(NC(=O)CSc2cn(CC(=O)N3CCCCCC3)c3ccccc23)cc1` was inactive: 4.14%; that for `Cc1nc2ccc(S(=O)(=O)NC(CC(C)C)C(=O)N3CCN(c4ccc(F)cc4)CC3)cc2s1` (stereo not drawn) was inactive: -12.7%; that for `CCN(CC)CCCNC(=O)c1ccc2c(c1)NC(=O)C(CS(=O)(=O)Cc1cccc(Br)c1)N2` (stereo not drawn) was inactive: -11.2%. The value for `Cc1ccc(CNC(=O)c2c(O)nc3c(C)cccn3c2=O)cc1` was inactive: 3.7%; that for `CN(C)c1ccc(CNS(=O)(=O)c2ccc3[nH]c4c(c3c2)CCCCC4)cc1` was inactive: 48.5%; that for `COc1ccc(Br)cc1CNC(=O)c1nn(-c2ccc(C)cc2)c(=O)c2c1c1ccccc1n2C` was inactive: 17.2%. The value for `Cc1ccccc1-c1noc(-c2cccnc2N(C)Cc2ccc(Cl)cc2)n1` was inactive: -14.6%.

Regarding `Clc1ccccc1C(c1ccccc1)(c1ccccc1)n1ccnc1`, the activation is inactive: -118% and inactive: 14.4%. The value for `NC(=O)NO` was inactive: -25.7% and inactive: 9.15%. The value for `CCOC(=O)c1cccc(NC(=O)CCC(=O)N2CC(C)Oc3ccc(C)cc32)c1` (stereo not drawn) was inactive: -20.4%.
